The source gives no read counts; variants with many changes may rest on few reads.
B1: OR4K15 (parent)
chain: GUUAACGGUCAUAGGCCAUGGAAACUAGGAGCACCAUUUCGCUGCCAGUGAAGAAAUGAACAAAGAAAAUCUGGGCCAGGCAGGCAUCAAAAGAAAUAGUCUUGCGCUCAACCAGAAAGUCUGUAAUCAUUUUAAGGGUA

Variants of: B1
Assay: self-cleavage, relative activity (ratio to wild type); higher = more cleavage; in vitro, sequencing; the parent is a self-cleaving ribozyme

Variant | self-cleavage
U9C U12C U19C A94G A95G U102C U122A | 1.74
A5U G7A A24G U43C A56G G84A | 1.32
A11G U38C A68G | 0.21
G7U A67G A86G | 0.31
A24G C34U A55G U57C A67G A94G | 0.89
U49A A54G C101U | 0.03
U9A A22G U39C U97C A111G G123A | 0
A51G A63G G83A A91G | 1.88
U49C A56G U130C | 0.66
A54G U70C U124A | 0.41
A23G A67C U139C | 1.37
G8C U9C A56G A91U U132C | 1.72
A18G A27G A78G | 0.22
A18G U26C A60G U72A A135G | 0.06
U2C A95G U130C | 2.19
A30G U49C A52G U70C | 1
A24G A62G A69G A92U | 1.32
A55G A63G U70C | 0.35
A18G U70C A91G A95G | 0.18
U37C A116G A117G | 0.79
A22G A24C A66U | 1.81
U49C A62G U102C A118G A129G | 0.58
C6U A22U U37C U39C | 0.85
A23G A51G A60G A78U A114U A125U | 0.02

Variant | self-cleavage
U39C A47G U57C | 1.41
U43C C81G U103A A114U | 0.02
U9A A59G A66G C85U A114G | 0.18
A30U G41A A91G | 1.31
A30G A52G U87C A94U A118U | 1.9
A30C A95G A126G | 0.94
U12A U39C U103C | 0.6
A24U A30G C45U A67G A118G U127C | 0.56
A24G A59G U102C U130C | 0.35
A5U A30G A63G | 1.12
U12A A52C A63G | 0.07
U12C A24U U108A | 0.08
A24G G28A U97A | 1.81
A47G A94G A110G A125G | 0.09
G7A A18G A30U A36U | 0.96
A66U G74U A126G | 0.16
U2C U9C A66U A69G A111G U120C U127A | 0.02
A54G A68G A91G A129G A135G | 0.74
A24G A55G A64G | 1
A63G C76A A116G | 0.05
U2C U3C U43A A117G | 1.16
U57C A60G A117G A125G | 0.19
A11G A67G A94G U108C A117G A118G U133A | 0
A55G A82U C107U A116G | 0.01

Variant | self-cleavage
A27G A67G A86G U100A U124A | 0.33
U2C C6A A86C U100C | 0.49
A56G A116G U132C | 0.33
A11G A30G U102A | 1.13
A11U U72C A82G A89U U100C | 0.5
U39C A91G A125G | 0.11
A18U A22G A60G U120A | 0.75
U19C A68G U108C | 0.01
A36U A51U A52G A126G | 0.76
A11U U19C A23G U43A | 0.84
A24G A94U A135G | 0.83
A27G A114U A117U A125G | 0.02
A13G G75C A89G A111G A116G | 0.04
A23U A27G A60G A95G A114G | 0.95
A67G A82G U127C | 0.25
U43C U97C A116G | 0.77
A62G A118G U139A | 0.74
A68U U124C U139C | 0.54
U9C U19C A51G A92G A110G | 0.24
G1A C112U A140G | 0.04
U43C A62G A67G A118U A126G | 0.39
A22U A23G A59U U132C | 1.31
C6U A51G A55G A114G A118U | 0.04
U3C U19C A82G U87C | 0.15

Variant | self-cleavage
U19C C25A A114G U120C A135U A140G | 0.09
U19C U122C U131A | 0.68
U57A A110U A117G | 1.09
A22G A47G U87C A111G | 0.07
A23G A36U A52G A64G A69G A86U | 0.89
U38A A54G A66G A96G A114C A117G | 0.02
A5G A55G A60G U103C U130C | 0.45
U2C U43A U57A A82G A94G | 0.59
A52C U72C U102C | 0.25
U38C A51U A89G A91G | 1.27
A30G U57A A92U | 0.35
U43A A68G U120C U130C | 0.97
A33G A36U U132G | 0.51
A11U A13G A96U A117G | 1.16
A56G A66G G106A | 0.01
U2C U9A A86G U120C | 1.02
C34U A47G A94G | 0.74
A30U U57G U72C | 0.27
A94G U102C A126C | 2.27
A24C A110G U130C | 0.05
A30G U39C A51G | 0.96
U19A A56G A114U | 0.06
A11U A55G U100C U108C | 0.02
A66U A69G A116U | 0.13

Variant | self-cleavage
G106A C128A A129G | 0.01
U43C U57C A94G A95G U103G | 0.02
U38C A52U U102A | 0.69
A63G U102C U133C | 1.95
A52G A111G U122G | 0.06
U37C A59G U108A | 0.04
U9C A60U A67G A68G | 1.26
U102G G104A U130C | 0
U38A U100C U102C | 1.47
A24C A33G U38A A95G | 1.2
A5U A69G U122C | 1.34
U39A G44A A54C | 0.94
G14A A30G U120C | 0.77
G20A A59G A90G U100C | 1.94
A4G A18U U57C A60G | 0.63
A24U A52G A56C A59G | 0.78
A5G C6U A89G A111G | 0.05
A64G A92G A96G | 1.65
U3C U19C A56U A82G A117G | 0.74
A82U U97C A134G | 0.04
A54G A56G A126C | 0.2
U9C A23G A55G A56G A92G U122C | 0.6
U12C A62C A82G A94G A135G | 0.86
A59G U87C U100C | 0.97

Variant | self-cleavage
U9A U19C A22G A23G A59U A95G A110G | 0.12
A36U U37A A78U A82G A116G | 0.05
A56G A78G U87C | 0.18
A30G A51U A62G A69G U87C A117G | 0.74
A11G A36U U39A A52G A125G U139C | 0.58
A47C A92U A110G U122A | 0.08
U72A A90G A111G A118U U130C | 0
A60G U87A U127A | 0.41
C10U U127C U132C | 0.26
U2C A78U A91U A96G U103A | 0.11
G21A A27G U37C | 0.74
A96G G104A U132C | 0.01
U2A A27G U39C A59G A64G | 0.54
A4C A11U U12C A23G U124C | 0.61
A23G A66G A67G | 1.19
U9C A51G A78G U100C | 0.2
A51G A56G U100C | 2.76
U108C U122C U124C | 0.01
U2A U39C A51G U108C | 0.08
A66G A68G A90G | 0.56
A63G G80A G83A G137A | 0.39
A22G G41U A94U | 1.24
U12G G14A G44U A78G A96U | 0.46
A55G U87A A98G A126G U127C U132A | 0.09

Variant | self-cleavage
U39C A60G A92G A116G U122C | 0.23
A64G A89G G99A | 0.23
C6A U9A A18G U72A | 0.12
U39C A54C A89U | 1.71
U43C G44A U87G | 0.84
A52G U72G A96G | 0.19
U3C U37C U49G U124A A135G | 0.67
C17U A68G A110U U122C | 0.66
A89G U100A U103C | 0.17
A4G A55U A95G U100C | 1.4
A24G A55G U108C A135U | 0.02
U19C G29A U39G U139C | 1.43
A18U A51U A55G U103C G104A A117G | 0
U3G A47G A60U | 0.41
A11U A56G U124C G137A | 1.08
A24G A27U U87C U127C | 0.23
A23G A30G U124A | 0.44
A55G A68G G123A | 1.18
A23G A68C G84U A116G | 0.27
A5G A62U A111G U130C U131C | 0.04
G58U A66G C88U A94G | 2.12
A33U A55G U70A A89U | 1.26
G7A U43C A68G G75A | 0.12
